For 83 variants, self-cleavage results are on record in the RNAGym collection of RNA variant scans (doi:10.7554/elife.90254).

B1: OR4K15 (parent)
chain: GUUAACGGUCAUAGGCCAUGGAAACUAGGAGCACCAUUUCGCUGCCAGUGAAGAAAUGAACAAAGAAAAUCUGGGCCAGGCAGGCAUCAAAAGAAAUAGUCUUGCGCUCAACCAGAAAGUCUGUAAUCAUUUUAAGGGUA

Read counts are not given, so values of variants with three or more changes are uncertain.

In the data set the parent is B1. As to the kind of experiment: self-cleavage, relative activity (ratio to wild type); higher = more cleavage; in vitro, sequencing; the parent is a self-cleaving ribozyme.
For the variant U26A A91U A126G, the self-cleavage amounted to 1.67.
As to C25U U38C C42U A55U A117G A118G U122A, the self-cleavage came out at 0.93.
In the case of U26C A60G A92G A117G, the self-cleavage stood at 1.3.
Regarding A24G C77U A118C U122C, the self-cleavage is 1.11.
For the variant A24G U26C A95G, the self-cleavage came to 0.86.
Take A24G U57C A95G U97C U131A: the self-cleavage was determined as 0.57.
Then A24G U49A U87C, with 1.01; and A24U A78C U87A, with 0.15.
The same measure for A24U A47U A59G: 0.79; for C25U U49C A54G: 0.79.
Regarding U26C U38C U122C, the self-cleavage was 1.31.
Then U26C A62C A67G U132G, with 0.42; and A24G G58U G123A, with 0.92.
As to U26C A78C A96U A118U, the self-cleavage was found to be 0.15.
The same measure for U26A U87A A117G A118G: 1.61; for U26A U87C A95U A140U: 1.65; for A24U U37C A91G A140G: 0.98.
On to U26A A27G U49A A91U A114G, for which the self-cleavage worked out at 0.1.
With A24G C34U A52U U57A A92G U103C, the self-cleavage was 0.23.
Consider U26C A126G U131C, for which the self-cleavage was determined as 0.47.
For U26C A47G A56G A59G A95G A140G, the self-cleavage was found to be 0.57.
U26A A63G A68G A111G A117G: the self-cleavage was determined as 0.02.
For the variant A24G U43A A86G U122C A129G, the self-cleavage was 0.97.
Then C25A U49C A52G A89U U139C, with 1.34.
As to A24G U57G A59G A117G U130C, the self-cleavage came out at 0.91.
The same measure for A24G U43C A56G: 1.62; for A24U A51U U70C G93A: 0.55; for C25U A47G U57C C112U: 0.03.
For U26C A51U A110U A125U U133C A134G, the self-cleavage came out at 2.3.
On to A24G U108C U132A, for which the self-cleavage came out at 0.03.
Take A24U C42U A51G A54G U108C: the self-cleavage worked out at 0.05.
For A24G G44A A64G A140C, the self-cleavage was 0.8.
For the variant U26C A67C U130C, the self-cleavage came to 0.74.
Consider A24G G29A A59U U97A, for which the self-cleavage is 0.76.
Then A24G U100A G104A A114G, with 0.01; and A24U U100A U131C, with 0.57; and A24G U37C U57A, with 0.74.
A24G C34A A56C A59G U72C: the self-cleavage came to 0.31.
Turning to U26C A56G A62U A89G U131C, the self-cleavage came to 0.51.
Take A24U A63C A64G A110G: the self-cleavage was 0.3.
Turning to C25A A64U A90U A118G, the self-cleavage was 1.05.
Regarding A24U A63G U70C, the self-cleavage is 1.76.
With U26C A51U A56G U127C, the self-cleavage was found to be 0.35.
With A24G U26A U70C, the self-cleavage was determined as 0.49.
Then U26C U37C A60G A69G A117G, with 0.24; and U26C U39A A96G A118U, with 0.3; and A24G U43C U108A A116U, with 0.01.
For A24U A30G U70C A78U U102C A126U, the self-cleavage came out at 0.35.
As to C25U U39C A51G A89G A98G, the self-cleavage amounted to 0.63.
Consider C25U A52G A90U U97A, for which the self-cleavage was 0.41.
A24G C105A U122C: the self-cleavage amounted to 0.02.
Consider C25U A92G A134G, for which the self-cleavage amounted to 1.23.
As for U26A U57C A66U A134G, the self-cleavage was 1.02.
The same measure for U26C A52G U131C: 0.42.
As to U26A A62U A78G, the self-cleavage amounted to 0.3.
On to U26C U38C A64G U72C A89G, for which the self-cleavage stood at 0.31.
Consider A24G U87A U103A A118G, for which the self-cleavage came to 0.35.
For A24G U37C A94G U108C, the self-cleavage stood at 0.03.
For U26C A52U U122A, the self-cleavage came out at 0.6.
Then C25A A51G A96G A117G, with 2.08; and U26A A56G A78C A92G A94G, with 0.32; and U26C A111U A126U, with 0.08.
The same measure for U26C A47U A52G A59U U108C A116G: 0.02.
As to A24G U57C A68G A82U G137A U139C, the self-cleavage came to 0.14.
Then A24G U72C A96G, with 0.16; and A24U A54G A59G U130C, with 1.91; and U26A A51U A69G, with 1.25.
With A24G G74U U103C A118G, the self-cleavage is 0.05.
Turning to A24G U37C A86G G123A U139C, the self-cleavage stood at 0.9.
As to U26C U38C U120C, the self-cleavage worked out at 0.42.
For A24G G44A U108C, the self-cleavage was found to be 0.02.
For the variant C25U A66G U70C A95G U102C, the self-cleavage worked out at 0.83.
Consider U26A A66G A67U U72C A86G, for which the self-cleavage was determined as 0.31.
The same measure for A24G U87C U103C: 0.83; for A24G U38C A78G U132C: 0.34.
The same measure for A24G U87C A129G U130C: 0.36; for A24G U43A U87C: 0.28; for C25A A116G U127C A135G: 0.16.
Then A24U U43C A63G A118G, with 2.18.
For C25U A36G C105U, the self-cleavage came to 0.37.
In the case of U26A A33U A126G, the self-cleavage stood at 1.25.
Then A24U A60G U108C, with 0.02; and C25U A27G A59G A64G A90G, with 0.8.
